Test results: PubChem BioAssay AID624417 (National Center for Advancing Translational Sciences (NCATS), 2012)
Out of some 410,000 compounds screened, about 6,400 (1.6%) were called active. Inconclusive means that the source gave no clear call. Such entries were picked first, then a sample of the others. Calls follow the shape of the dose curve; as a rule, active = well fitted inhibition curve with a large enough effect; inconclusive = small, poorly fitted or top-dose-only effect; inactive = no such curve, though single readings can be large or run the other way. Potencies beside an inconclusive call are fits to weak or partial responses and may not hold up.

These compounds were tested against Glucagon-like peptide 1 receptor (Homo sapiens) (UniProt P43220) (assay: qHTS of GLP-1 Receptor Inverse Agonists (Inhibition Mode)). Details: HEK293 GLP-1R CRE-luciferase, luminescence, 24 h, GLP-1R form is constitutively active; series mostly up to 38.3 µM.
Chain of UniProt P43220 (P43220 whole entry, looked up): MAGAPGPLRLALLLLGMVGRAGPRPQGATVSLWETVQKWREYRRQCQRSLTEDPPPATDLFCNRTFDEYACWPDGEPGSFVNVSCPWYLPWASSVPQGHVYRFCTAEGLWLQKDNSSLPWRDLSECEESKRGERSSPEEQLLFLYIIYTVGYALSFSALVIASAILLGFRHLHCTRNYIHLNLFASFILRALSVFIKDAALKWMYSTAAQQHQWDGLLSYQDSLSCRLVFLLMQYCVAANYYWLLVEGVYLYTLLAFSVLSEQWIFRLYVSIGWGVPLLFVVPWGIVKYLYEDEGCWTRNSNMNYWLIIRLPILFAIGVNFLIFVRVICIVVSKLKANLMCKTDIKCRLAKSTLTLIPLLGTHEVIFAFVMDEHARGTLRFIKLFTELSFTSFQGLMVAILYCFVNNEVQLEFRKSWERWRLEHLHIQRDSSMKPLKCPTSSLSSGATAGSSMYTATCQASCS
In short: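 Seeding at 200 cells/uL, 12 h culture, 24 hr compound treatment, then luciferase reagent and a luminescence read; cells are HEK293 stably expressing a constitutively active GLP-1R plus cAMP-responsive luciferase.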
Also: nearly all actives have a fitted effect of over 55% in size.
Potency is read from the fitted curve at half-maximal effect; tags tell the direction and shape of the fitted curve.

Potency, active:
CCCC(=O)Nc1ccc(C(=O)Nc2cc(C(F)(F)F)ccc2Cl)cc1 6.31 µM
Cc1ccc(COn2c(-c3ccc(Cl)cc3Cl)nc3ncccc32)cc1 10 µM

Potency, inactive:
COC(=O)c1c(C)[nH]c(C=O)c1-c1ccccc1
COc1cc2c(cc1NC(=O)c1cc(-c3ccncc3)nc3ccccc13)oc1ccccc12
CCOC(=O)c1c(C)c(C(=O)NCc2ccc(Cl)cc2)c(C)n1C
CC(C)(C)OC(=O)N1CCC(c2c(C(=O)NCc3ccco3)cnn2-c2ccc(F)cc2F)CC1
Cc1nn(-c2ccccn2)c2c1C(c1ccsc1)C1=C(CCCC1=O)N2 (stereo unspecified)
CC1CCN(S(=O)(=O)c2ccc3c(ccc(=O)n3CC(=O)NCc3ccccc3)c2)CC1
COc1ccc(NC(=O)c2cc3c(=O)n(C)c4cc(Cl)ccc4c3s2)cc1Cl
COc1cccc(N2C(=O)CC(N3CCC(c4nc5ccccc5[nH]4)CC3)C2=O)c1 (stereo unspecified)
COc1ccc(NC(=O)c2cc(=O)c3cc(C)cc(C)c3o2)cc1
CCOc1ccc(NS(=O)(=O)c2ccc(Cl)c(N=Nc3c(O)[nH]c(=S)[nH]c3=O)c2)cc1Br

Potency, inconclusive:
Cc1ccc(SCc2nc(-c3ccncc3)no2)cc1 28.2 µM [inhibitor, single point]
Cc1ccc(Cl)cc1Nc1nc(-c2cccnc2)cs1 5.62 µM [inhibitor, partial curve]
Cc1ccc(O)c(Nc2ncnc3ccc([N+](=O)[O-])cc23)c1 5.62 µM [inhibitor, partial curve]
O=C(c1cc(COc2ccc(F)cc2F)on1)N1CC[C@@H]2CCCC[C@H]2C1 10 µM [inhibitor, partial curve, poor fit]
CC1=C(C(=O)c2ccccc2)C(c2ccc(OC(F)F)cc2)NC(=S)N1 (stereo unspecified) 11.2 µM [inhibitor, partial curve, poor fit]
Cc1[nH]c2ccccc2c1C(=O)c1cc(Cc2ccccc2)sc1N 10 µM [inhibitor, single point]
Cc1ccc(N2C(=O)C3C4C=CC(CNC(=S)N5CCN(c6cccc(C)c6)C(C)C5)(O4)C3C2=O)cc1 (stereo unspecified) 7.08 µM [inhibitor, partial curve, poor fit]
CCOc1cc(/C=C2\CN(C)C/C(=C\c3ccc(O)c(OCC)c3)C2=O)ccc1O 6.31 µM [inhibitor, partial curve, poor fit]
COc1ccccc1-c1cn(-c2ccccc2)c(=S)[nH]1 10 µM [inhibitor, partial curve]
CCN1CCN(CCNC(=O)c2ccc(/C=C3/Sc4ccccc4N(Cc4cccc(C)c4)C3=O)cc2)CC1 11.2 µM [inhibitor, partial curve, poor fit]
Cc1ccc(O)c(C(=O)c2cnn(C(=O)c3cccc(S(=O)(=O)N(C)C)c3)c2)c1 4.47 µM [inhibitor, full curve]
O=c1[nH]c2cc3ccccc3cc2nc1-c1nnnn1C1CCCC1 2 µM [inhibitor, full curve]
CC(NC(=O)[C@H](C)N1C(=O)N2CCc3c([nH]c4ccccc34)[C@@]2(C)C1=O)c1ccccc1 (stereo partly specified) 11.2 µM [inhibitor, partial curve, poor fit]
CCOC(=O)N1CCC(NC(=O)C2CCCN(Cc3nc(-c4ccc(CC)cc4)oc3C)C2)CC1 (stereo unspecified) 14.1 µM [inhibitor, partial curve, poor fit]
Cc1ccc(CCNC(=O)c2oc(=O)c3ccccc3c2-c2ccc(C)cc2)cc1 15.8 µM [inhibitor, single point]
CCCc1nnc(SCC(=O)Nc2ccc(OC)cc2)n1N 12.6 µM [inhibitor, single point]
COc1ccc(C2CC(c3ccccc3)=NN2c2ccc(N)cc2)cc1 (stereo unspecified) 14.1 µM [inhibitor, single point]
CC1(C)N=C(N)N=C(N)N1c1cccc(C#N)c1 5.62 µM [inhibitor, full curve, poor fit]
Fc1cccc(Cc2c(-c3cccc(Br)c3)nc3ccc(Cl)cn23)c1 28.2 µM [inhibitor, single point]
CCSc1nc2sc3c(c2c2[n+]1CC(CBr)O2)CCCC3 (stereo unspecified) 31.6 µM [inhibitor, single point]
COc1ccc(NC(=O)CN(C)C(=O)c2ccccc2CCc2ccccc2)cc1 7.94 µM [inhibitor, partial curve, poor fit]
O=C(Cn1nnc(-c2ccc(Cl)cc2)n1)NC1CC2CCC1C2 (stereo unspecified) 8.91 µM [inhibitor, partial curve, poor fit]
CCCN1C/C(=C/c2cccc([N+](=O)[O-])c2)C(=O)/C(=C/c2cccc([N+](=O)[O-])c2)C1 11.2 µM [inhibitor, single point]
Cc1cccc(C(=O)Nc2ccc(C(=O)c3ccccc3)cc2)c1 7.08 µM [inhibitor, partial curve]
Cc1ccc(OCCOc2cccc(Br)c2)c([N+](=O)[O-])n1 28.2 µM [inhibitor, single point]
COc1ccccc1CN(C)C(=O)c1cc(-c2cccs2)nc2ccccc12 10 µM [inhibitor, partial curve, poor fit]
Cc1nc2c(-c3ccccc3)c(C)[nH]n2c(=O)c1Cc1ccc(Br)cc1 1.78 µM [inhibitor, full curve, poor fit]
CN(C)/C=C/C(=O)c1nnn(C2CCCCC2)c1NC1CCCCC1 10 µM [inhibitor, single point]
COc1ccc(CNC(=O)C2CCCN(C(=O)c3cnn(-c4ccc(F)cc4)c3-n3cccc3)C2)cc1 (stereo unspecified) 8.91 µM [inhibitor, partial curve, poor fit]
